Assay results taken from publication PMC12136788.
The other results are listed elsewhere or left out.

B1: chr2:189754195:189754303:-|CDS|ENSG00000128694|unk|total|mutant (ssRNA)
RNA: GGGAGUUCUACAGUCCGACGAUCCCAGAGUGCUCCACCAUGAGUGGUGGGAAAGCCACCGAACAUUUGGCCAAACAAGGAAACCGAUUUCAUUUUGACAUCAAACCUCCCUUGCAUCAUGCUAAAAAUUGUGAUUUUUCUUUUCAACAGAGGAUUGAGCAUCA
B2: ENSG00000196277:stop:overlap|stop_codon|ENSG00000196277|stop_codon|NA|stop_codon (ssRNA)
RNA: GGGAGUUCUACAGUCCGACGAUCCACCAGUAAGAAAGAGUGUACAAAAGUCUGUUACUUGGUACACUAUCCCACCAACAGUAUAGCUUUUGACUGCUUUCCCAAAGAUUUUUUUUUUUGGCUGUACAGUGGAACUUGGAUUACCAACAGAGGAUUGAGCAUCA
B3: chr1:20652278:20652361:-|3pUTR|ENSG00000244038|msi1_unk|FALSE|overlapping (ssRNA)
RNA: GGGAGUUCUACAGUCCGACGAUCGACUGAGGGGCUAGAGCCCUCUCCGCACAGCGUGGAGACGGGGCAAGGAGGGGGGUUAUUAGGAUUGGUGGUUUUGUUUUGCUUUGUUUAAAGCCGUGGGAAAAUGGCACAACUUUACCUCAACAGAGGAUUGAGCAUCA
B4: chr8:116846039:116846140:-|3pUTR|ENSG00000164754|msi1|FALSE|bound_elsewhere (ssRNA)
RNA: GGGAGUUCUACAGUCCGACGAUCACAUUCAAUAUGAUGUGCCUGUAAACCAAGGAGUUUUCCCCGUUUGUAAAAAGACAUUGUAGAUAAUUGAAUGUUUGAUUUUAGAAAGGUCAUUAGUUUCUUGUUACACAUUUUGUUAGUCAACAGAGGAUUGAGCAUCA
B5: chr8:12728900:12729063:-|CDS|ENSG00000154359|control|control|control (ssRNA)
RNA: GGGAGUUCUACAGUCCGACGAUCAACGUGCAUUUCUUACCGGACGGAAGGUCUGUGGUUGAUACAGUUGGAGGAAAGCGGUUUAGGGUUUUAAAAAGAGGAAUGAAAGAUGGAUAUUGCACUGCCGACAUUGAAUAUCUGGAACAACAGAGGAUUGAGCAUCA
B6: chr2:46903789:46903890:-|3pUTR|ENSG00000180398|msi1|total|mutant (ssRNA)
RNA: GGGAGUUCUACAGUCCGACGAUCAAAUUUCUGCAGCUGGCUUGAAUUUCUCCCCAGAAAAUGGGUUUUUCUUUUCUAUUGCACCGUCAGGCUGCAAAUUUCCAAACUUUUAUGCUUUGCUUCCCUUAUUUAUAAGGGAAUGCCCAACAGAGGAUUGAGCAUCA
B7: chr5:40767470:40767586:-|CDS|ENSG00000132356|unk|total|mutant (ssRNA)
RNA: GGGAGUUCUACAGUCCGACGAUCUUUAAGAAGAUAUGUGAUGGGAUCUUCUAUACCCCUCAAUAUUUAAAUCCUUCUGUGAUCCGCCUUUUGAAACAUAUGCUGCAGGUGGAUCCCAUGAAGAGGGCCACAAUCAAAGAUAUCCAACAGAGGAUUGAGCAUCA
B8: chr9:14618660:14618761:-|3pUTR|ENSG00000175893|msi1|total|mutant (ssRNA)
RNA: GGGAGUUCUACAGUCCGACGAUCUCCGCUUUCCACAGGGAUUUCUUGAAAUGCUUUUGUUAUUAAACUCAAAAGGCAGUGAUCCGGAUGAAAUAAUUGUACAUAAUUUAUUUCCGUACUGACAGUGUUACAGAUUCUAAUUUACAACAGAGGAUUGAGCAUCA
B9: chr2:157736639:157736676:-|3pUTR|ENSG00000115170|msi1_unk|total|mutant (ssRNA)
RNA: GGGAGUUCUACAGUCCGACGAUCCUUCACAUUUGUAUGUGUGCCGACUGUAACUUUUUUUCAGUUCAUAUGCAGAACGUAUUCCGCCAUUACCCACGUGACACCACCGAAUAUAUUACUGAUUCCGAAGCAAAGAUUUCAGUACAACAGAGGAUUGAGCAUCA
B10: ENSG00000070961:be:win_3251|CDS|ENSG00000070961|bound_else_gene|NA|bound_elsewhere_windowed (ssRNA)
RNA: GGGAGUUCUACAGUCCGACGAUCAGGAAUUAGCAGAGGAUGUUGAAGAGAUUGAUCACGCUGAAAGGGAGUUGCGGCGUGGCCAAAUCUUGUGGUUUAGAGGUCUGAACAGAAUCCAAACACAGAUUCGAGUGGUGAAUGCAUCAACAGAGGAUUGAGCAUCA
B11: chr1:35190724:35191005:-|CDS|ENSG00000116560|unk|FALSE|unique (ssRNA)
RNA: GGGAGUUCUACAGUCCGACGAUCGCCCUUUCUGUUCGUAAUCUUUCACCUUAUGUUUCCAAUGAACUGUUGGAAGAAGCCUUUAGCCAAUUUGGUCCUAUUGAAAGGGCUGUUGUAAUAGUGGAUGAUCGUGGAAGAUCUACACAACAGAGGAUUGAGCAUCA
B12: chr14:50159683:50159784:-|CDS|ENSG00000100485|unk|FALSE|unique (ssRNA)
RNA: GGGAGUUCUACAGUCCGACGAUCGAGGAAAAUACAAAUUUGUGAUAAAGAAGAUACUUGUGAGCACAAGCAUGCAUUUGAAUUAGUAUCCAAAGAUGAGAACAGCAUAAUAUUUGCUGCUAAGUCUGCUGAAGAAAAAAACAACAACAGAGGAUUGAGCAUCA
B13: chr4:87473334:87473774:-|three_prime_utr|ENSG00000152583|control|control|control (ssRNA)
RNA: GGGAGUUCUACAGUCCGACGAUCCUUUCCAGCAUCCUCCUCUGUUCUAACCACUUCAGAAAUAUAUGCAGCUGUGAUACUUGUAGAUUUAUAUUUAGCAAAAUGUUAGCAUGUAUGACAAGACAAUGAGAGUAAUUGCUUGACCAACAGAGGAUUGAGCAUCA
B14: chr21:34512026:34512195:-|three_prime_utr|ENSG00000288711|control|control|control (ssRNA)
RNA: GGGAGUUCUACAGUCCGACGAUCACACUACCGGAUCCUCCGAGGGUGAUGGUUCUCAAGAAGGCAGAAGCAAUGGUGACCAAUAGACCUCCUUAAAGGCUGAGCCGCUGGGCACCUUCCUACUCCUCUCGACCGUGCUAGGAUCAACAGAGGAUUGAGCAUCA

What follows are binders tested against MSI1 full-length (mouse, UniProt Q61474 1-362) (assay: nsRBNS (natural sequence RNA bind-n-seq); RBNS binding buffer (assumed for nsRBNS): 25 mM Tris pH 7.5, 150 mM KCl, 3 mM MgCl2, 0.01% Triton X-100, 500 ug/ml BSA, 20 U/ml SUPERase-In, 4 C; UNK is unkempt and MSI1 is Musashi-1; names of the RNAs are library labels; protein concentration not given here; high values mean tight binding).
UniProt Q61474, sequence (Q61474 whole entry): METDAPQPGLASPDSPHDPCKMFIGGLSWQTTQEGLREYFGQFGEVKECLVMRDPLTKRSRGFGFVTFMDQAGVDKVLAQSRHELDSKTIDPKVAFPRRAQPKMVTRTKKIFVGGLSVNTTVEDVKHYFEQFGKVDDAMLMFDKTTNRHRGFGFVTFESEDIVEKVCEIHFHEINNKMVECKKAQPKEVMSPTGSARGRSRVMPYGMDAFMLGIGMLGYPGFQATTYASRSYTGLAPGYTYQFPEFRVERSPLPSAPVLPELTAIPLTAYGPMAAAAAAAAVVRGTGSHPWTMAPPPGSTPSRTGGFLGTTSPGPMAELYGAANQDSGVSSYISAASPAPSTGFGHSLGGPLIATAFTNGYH
B1 was tested, and the binding signal was 0.254 enrichment R.
Binder B2 has a binding signal of 0.278 enrichment R.
Binder B3 has a binding signal of 0.623 enrichment R.
Work on B4 yielded a binding signal of 11.3 enrichment R.
For B5, the binding signal was 0.55 enrichment R.
Work on B6 yielded a binding signal of 0.493 enrichment R.
Binder B7 has a binding signal of 0.349 enrichment R.
B8 gave a binding signal of 0.626 enrichment R.
Binder B9 has a binding signal of 0.253 enrichment R.
B10 gave a binding signal of 0.59 enrichment R.
B11 was tested, and the binding signal was 0.315 enrichment R.
B12 gave a binding signal of 0.442 enrichment R.
With B13 the binding signal was 11.5 enrichment R.
With B14 the binding signal was 0.387 enrichment R.
